Common to all, as to assay: uncleaved DNA left, log2 of reads against the no-enzyme library (log2 ratio); higher = less cleavage (more negative = more Rep cleavage of the k-mer); sequences stand for … in CTCGTCCG…ACCGGAGA
The subject of assay [1] is T1, Rep nickase domain of Muscovy duck circovirus.
T1 sequence (residues 1-111, tag not shown): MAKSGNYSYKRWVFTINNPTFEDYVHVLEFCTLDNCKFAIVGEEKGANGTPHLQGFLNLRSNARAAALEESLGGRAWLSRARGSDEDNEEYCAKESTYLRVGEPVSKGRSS
The protocol:
(§1)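 A pool of 90-nt single-stranded DNAs with seven random bases just before the constant AC of the nick site (name = the seven bases) was cut by 3 µM recombinant His6-SUMO-tagged Rep nickase domain (300 nM DNA, 50 mM HEPES pH 8.0, 50 mM NaCl, 1 mM MnCl2, 1 h, 37 °C, three replicates). Uncut DNA was amplified and sequenced.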

Assay [2] deals with T2, Rep nickase domain of banana bunchy top virus.
T2 sequence (residues 1-94, tag not shown): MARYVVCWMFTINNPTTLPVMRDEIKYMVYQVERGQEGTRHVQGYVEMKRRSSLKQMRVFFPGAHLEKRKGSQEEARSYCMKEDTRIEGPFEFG
How it is done: as §1
Assay [3] relates to T3, Rep nickase domain of cabbage leaf curl virus.
T3 sequence (residues 1-116, tag not shown): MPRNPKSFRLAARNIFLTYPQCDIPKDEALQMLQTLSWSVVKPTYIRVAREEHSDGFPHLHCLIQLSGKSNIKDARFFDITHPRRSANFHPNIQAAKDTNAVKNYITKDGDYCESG
The protocol: as §1
Assay [4] has as its system T4, Rep nickase domain of chickpea chlorotic dwarf virus.
T4 sequence (residues 1-124, tag not shown): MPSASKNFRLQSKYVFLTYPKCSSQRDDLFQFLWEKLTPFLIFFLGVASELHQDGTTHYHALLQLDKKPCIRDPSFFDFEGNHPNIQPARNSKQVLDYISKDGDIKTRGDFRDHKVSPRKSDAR
The protocol:
as §1

The subject of assay [5] is T5, Rep nickase domain of faba bean necrotic yellows virus.
T5 sequence (residues 1-98, tag not shown): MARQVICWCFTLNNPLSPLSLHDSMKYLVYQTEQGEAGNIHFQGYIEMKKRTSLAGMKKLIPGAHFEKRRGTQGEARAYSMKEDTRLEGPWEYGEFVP
How it is done: as §1
The subject of assay [6] is T6, Rep nickase domain of maize striate mosaic virus.
T6 sequence (residues 1-117, tag not shown): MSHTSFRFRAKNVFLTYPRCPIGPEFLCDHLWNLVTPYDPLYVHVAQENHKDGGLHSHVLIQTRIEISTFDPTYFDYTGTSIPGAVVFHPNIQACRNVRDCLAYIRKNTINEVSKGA
How it is done:
as §1

The subject of assay [7] is T7, Rep nickase domain of porcine circovirus 2.
T7 sequence (residues 2-116, tag not shown): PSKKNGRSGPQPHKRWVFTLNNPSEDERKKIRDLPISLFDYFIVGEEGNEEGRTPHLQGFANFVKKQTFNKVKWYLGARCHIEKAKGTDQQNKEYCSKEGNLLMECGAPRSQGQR
The protocol:
as §1

For assay [8], the system named is T8, Rep nickase domain of tomato golden mosaic virus.
T8 sequence (residues 1-124, tag not shown): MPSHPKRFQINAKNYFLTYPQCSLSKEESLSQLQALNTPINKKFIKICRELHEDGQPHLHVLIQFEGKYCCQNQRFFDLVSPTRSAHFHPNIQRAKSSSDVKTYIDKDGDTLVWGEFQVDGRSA
How it is done:
as §1

Assay [9] concerns T9, Rep nickase domain of tomato yellow leaf curl virus.
T9 sequence (residues 1-136, tag not shown): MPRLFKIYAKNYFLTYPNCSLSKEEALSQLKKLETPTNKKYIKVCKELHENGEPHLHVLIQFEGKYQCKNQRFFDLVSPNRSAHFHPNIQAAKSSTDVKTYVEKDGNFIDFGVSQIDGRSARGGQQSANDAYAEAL
How it is done:
as §1

For assay [10], the system named is T10, Rep nickase domain of wheat dwarf virus.
T10 sequence (residues 1-137, tag not shown): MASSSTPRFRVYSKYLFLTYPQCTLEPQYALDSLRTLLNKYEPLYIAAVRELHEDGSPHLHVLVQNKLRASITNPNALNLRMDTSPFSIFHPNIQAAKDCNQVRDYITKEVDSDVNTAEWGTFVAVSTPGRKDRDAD
How it is done:
as §1

This is one part of the list. One pool of 16,384 single-stranded DNAs met each Rep nickase domain in vitro for 1 h at 37 °C with 3 µM enzyme; only the middle of the 90-letter strands is printed. Uncut reads are compared with the no-enzyme pool on a log2 scale; strong cutting gives strongly negative numbers. There is no active / inactive call. Because reads are shares of a total, they shift together; values above 0 arise when much of the pool is cut.

ATCACCT: the “uncleaved DNA left (log2)” value in assay [1] is -0.0958; in assay [2], -0.0859; in [3] it was -0.123; in [4] it was -2.05; in assay [5], -0.0514; in assay [6], -0.223. Moreover, the “uncleaved DNA left (log2)” value in assay [7] was -0.226; in assay [8], -0.0471; in [9] it was -0.17; in assay [10], -0.0204.
As for GTAATCA, the “uncleaved DNA left (log2)” value in assay [1] was -0.0603; in assay [2], 0.134; in assay [3], 0.244; in assay [4], 0.844; in assay [5] it was -0.00288; in [6] it was 1.64. Moreover, the “uncleaved DNA left (log2)” value came to 0.0544 in [7], 0.047 in [8], 0.125 in assay [9] and 0.0916 in assay [10].
For the sequence TGCGGGA, the “uncleaved DNA left (log2)” value in assay [1] was 0.0812; in [2], -0.0405; in assay [3], -0.112; in assay [4], -0.256; in assay [5], 0.00872; in [6], -0.351. Also, the “uncleaved DNA left (log2)” value in assay [7] was 0.0171; in assay [8], -0.0533; in assay [9], -0.0841; in assay [10], 0.0241.
Turning to TCAGACC, the “uncleaved DNA left (log2)” value in [1] is 0.0132; in [2], 0.0325; in assay [3] it was 0.0344; in assay [4] it was 0.309; in assay [5], -0.0124; in assay [6] it was -0.0801. The “uncleaved DNA left (log2)” value is 0.118 in assay [7], 0.0939 in assay [8], -0.0315 in [9] and 0.037 in assay [10].
As to ATCATTC, the “uncleaved DNA left (log2)” value in [1] is -0.0427; in assay [2], -0.335; in [3], -0.582; in assay [4], -0.664; in assay [5], -0.0493; in assay [6], -1.16. The “uncleaved DNA left (log2)” value was -0.113 in assay [7], -0.25 in assay [8], -0.228 in assay [9] and -0.299 in assay [10].
In the case of TATCGTG, the “uncleaved DNA left (log2)” value in assay [1] was 0.0254; in assay [2] it was 0.0759; in assay [3], -0.558; in assay [4], -0.737; in assay [5], 0.145; in assay [6] it was -1.06. The “uncleaved DNA left (log2)” value was 0.191 in [7], -0.0096 in assay [8], 0.133 in assay [9] and 0.0702 in assay [10].
With CACGAGC, the “uncleaved DNA left (log2)” value in [1] is -0.0533; in assay [2] it was -0.00831; in assay [3] it was 0.107; in assay [4], 0.582; in assay [5], -0.182; in [6], -0.128. Further, the “uncleaved DNA left (log2)” value is -0.0381 in assay [7], 0.0403 in assay [8], -0.0222 in assay [9] and -0.026 in assay [10].
For the sequence AGAGGTT, the “uncleaved DNA left (log2)” value was 0.0627 in assay [1]; -0.115 in [2]; 0.238 in assay [3]; 1.04 in [4]; 0.0482 in assay [5]; 1.6 in [6]. Further, the “uncleaved DNA left (log2)” value in assay [7] was 0.0316; in [8], 0.0682; in assay [9] it was -0.153; in assay [10], -0.0598.
For CATGAGT, the “uncleaved DNA left (log2)” value in [1] is -0.0277; in [2], -0.056; in [3], -0.524; in [4] it was -0.976; in [5], 0.211; in assay [6], -1.07. In addition, the “uncleaved DNA left (log2)” value in assay [7] is 0.0672; in [8], -0.00436; in [9] it was 0.0659; in assay [10] it was -0.0692.
Consider CATCCGA, for which the “uncleaved DNA left (log2)” value was -0.168 in assay [1]; -0.0991 in assay [2]; -0.23 in assay [3]; -0.166 in [4]; -0.101 in assay [5]; -0.948 in assay [6]. The “uncleaved DNA left (log2)” value is 0.063 in assay [7], -0.0654 in assay [8], -0.0126 in assay [9] and -0.0957 in assay [10].
As to TAGTAAT, the “uncleaved DNA left (log2)” value in assay [1] was -3.47; in [2], -3.41; in assay [3] it was -2.73; in assay [4], -2.59; in assay [5], -3.12; in assay [6], -0.0209. In addition, the “uncleaved DNA left (log2)” value is -4.13 in [7], -0.922 in assay [8], 0.123 in assay [9] and -0.81 in assay [10].
In the case of GCAAGGT, the “uncleaved DNA left (log2)” value in [1] worked out at 0.111; in assay [2], 0.0491; in assay [3], 0.319; in [4], 0.835; in assay [5], 0.0905; in [6], 0.778. The “uncleaved DNA left (log2)” value in [7] is 0.0617; in assay [8], -0.0064; in [9], -0.00645; in [10] it was 0.0785.
Turning to CCCGACC, the “uncleaved DNA left (log2)” value was -0.0977 in assay [1]; -0.0458 in assay [2]; -0.125 in assay [3]; 0.00866 in assay [4]; 0.0252 in assay [5]; -0.689 in [6]. Further, the “uncleaved DNA left (log2)” value in assay [7] is -0.0846; in [8] it was 0.0233; in [9] it was -0.135; in [10] it was -0.212.
GACCCAT: the “uncleaved DNA left (log2)” value was 0.113 in assay [1]; -0.032 in assay [2]; 0.463 in assay [3]; -0.0898 in assay [4]; -0.00496 in [5]; 1.24 in assay [6]. The “uncleaved DNA left (log2)” value was -0.0665 in [7], -0.00727 in [8], 0.103 in assay [9] and 0.0705 in assay [10].
For ACCCCGA, the “uncleaved DNA left (log2)” value is -0.016 in assay [1]; -0.032 in [2]; -0.438 in assay [3]; -0.432 in assay [4]; -0.00245 in [5]; -1.2 in assay [6]. Further, the “uncleaved DNA left (log2)” value in assay [7] is 0.0418; in assay [8], -0.0427; in assay [9] it was -0.0341; in assay [10], -0.0788.
